Activity change, negative = inhibition data for 27 compounds are collected here from PubChem BioAssay AID1745853 (National Center for Advancing Translational Sciences (NCATS), 2022).

Some of the results follow. The main result of the screen is listed elsewhere. These columns were measured beside it and carry no call. Square brackets hold non-standard residues; d marks the D form. Peptide text beside a SMILES is read from it. * marks the point of attachment. PhLac = O=C(O)[CH](O)Cc1ccccc1; NMeV = CN[CH](C(=O)O)C(C)C; Cbz = O=C(OCc1ccccc1)*; CH2F = FC*

Holding throughout (test): Primary Screen for Target Class Profiling of Small Molecule Inhibitors of Methyltransferases
In test [1] the target is Glycine N-methyltransferase (Homo sapiens) (UniProt Q14749). The settings on record: purified enzyme, MTase-Glo SAH luminescence; measured here: GNMT inhibition; at 40 µM; stronger effect = lower value. A digest of the protocol: (§1)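 Each enzyme was reacted with SAM and its substrate, with compounds tested once at 40 uM; SAH formed was read by MTase-Glo luminescence.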
The target in test [2] is Guanidinoacetate N-methyltransferase (Homo sapiens) (UniProt Q14353). The following applies: purified enzyme, MTase-Glo SAH luminescence; measured here: GAMT inhibition; at 40 µM; stronger effect = lower value. Put shortly:
as §1

Test [3] concerns the target Histamine N-methyltransferase (Homo sapiens) (UniProt P50135). The settings on record: purified enzyme, MTase-Glo SAH luminescence; measured here: HNMT inhibition; at 40 µM; stronger effect = lower value. Put shortly:
as §1

The target in test [4] is Nicotinamide N-methyltransferase (Homo sapiens) (UniProt P40261). The settings on record: purified enzyme, MTase-Glo SAH luminescence; measured here: NNMT inhibition; at 40 µM; stronger effect = lower value. A digest of the protocol:
as §1

The target of test [5] is Phenylethanolamine N-methyltransferase (Homo sapiens) (UniProt P11086). The following applies: purified enzyme, MTase-Glo SAH luminescence; measured here: PNMT inhibition; at 40 µM; stronger effect = lower value. A digest of the protocol: as §1
On the % scale 0 is the no-effect control and ±100 the full control effect.

For `CCCn1c(=O)c2ccc(C(=O)NC3CCCC3)cc2n2c(=O)n(CC(=O)c3ccccc3)nc12`, the activity change, negative = inhibition in test [1] was -0.639%; in test [2] it was 0%; in test [3], 0.848%; in test [4], 0.402%; in test [5], 3.41%.

With `COc1ccc(OC)c2c1cc1n2CC(C)(C(=O)NC2CCCCC2)N(Cc2cccs2)C1=O` (stereo not given), the activity change, negative = inhibition in test [1] was -14.2%; in test [2] it was 0.23%; in test [3], 7.23%; in test [4], 2.04%; in test [5], -1.95%.

As to `CCc1cc2c(cc3n2CC(C)(C(=O)NC2CCCCC2)N(Cc2ccccc2F)C3=O)s1` (stereo not given), the activity change, negative = inhibition in test [1] is 0.087%; in test [2], 4.19%; in test [3], 4.49%; in test [4] it was 1.41%; in test [5] it was -1.41%.

Take `CC(=O)Nc1cccc(CN2CCC(N3CCCNC3=O)CC2)c1`: the activity change, negative = inhibition in test [1] is -1.32%; in test [2], -10.3%; in test [3], -1.9%; in test [4] it was -14.9%; in test [5], -11.6%.

As for `Cc1cnc(C2CCC2)n1CC1CCN(C(=O)COCc2ccccc2)C1` (stereo not given), the activity change, negative = inhibition is -4.05% in test [1]; 1.49% in test [2]; -22.5% in test [3]; -0.664% in test [4]; -0.499% in test [5].

`CCCCN1C(=O)c2cc3ccc(OC)cc3n2CC1(C)C(=O)NC1CCCCC1` (stereo not given): the activity change, negative = inhibition is 1.79% in test [1]; 2.77% in test [2]; 5.95% in test [3]; -2.73% in test [4]; 0.458% in test [5].

Regarding `CSc1cccc(N2C(=O)CSc3c(c4ccccc4n3C)C2C(=O)NCCC(C)C)c1` (stereo not given), the activity change, negative = inhibition in test [1] was 1.54%; in test [2], 3.55%; in test [3], -5.31%; in test [4] it was -7.65%; in test [5], -0.649%.

As for `COC(=O)CC[C@H](NC(=O)[C@H](CC(C)C)NC(=O)OCc1ccccc1)C(=O)N[C@@H](Cc1cnc[nH]1)C(=O)N[C@@H](CC(=O)OC)C(=O)CF` (Cbz-LE(OMe)HD(OMe)-CH2F), the activity change, negative = inhibition in test [1] was 2.8%; in test [2], 0.65%; in test [3], 5.42%; in test [4] it was -8.91%; in test [5] it was 1.46%.

Turning to `COc1ccc(CC(=O)N(C)C2CCc3nnc(C)n3CC2)cc1Cl` (stereo not given), the activity change, negative = inhibition in test [1] is -0.196%; in test [2] it was 4.31%; in test [3], 0.193%; in test [4], -0.275%; in test [5], 17.9%.

With `COCCn1cnnc1CCNC(=O)c1oc2cc(OC)ccc2c1C`, the activity change, negative = inhibition in test [1] is -7.53%; in test [2], -7.09%; in test [3] it was -4.49%; in test [4], -14.7%; in test [5], 6.27%.

On to `COCCNc1ncc(-c2ccc(F)cc2)c2c1OCC2`, for which the activity change, negative = inhibition in test [1] was -9.81%; in test [2] it was -2.6%; in test [3] it was -1.57%; in test [4], -14%; in test [5], 4.44%.

In the case of `CCCn1c(=O)c2ccc(C(=O)NC(C)C)cc2n2c(SCC(=O)c3ccc(F)cc3)nnc12`, the activity change, negative = inhibition in test [1] turned out to be 2.09%; in test [2] it was 3.42%; in test [3] it was 1.54%; in test [4] it was 2.46%; in test [5], 1.84%.

Take `CCCN1C(=O)c2cc(C(=O)NCc3ccccc3OCC)nn2CC1(C)C(=O)NC1CCCC1` (stereo not given): the activity change, negative = inhibition in test [1] was -1.92%; in test [2] it was 0.833%; in test [3], -6.72%; in test [4] it was -6.91%; in test [5], -5.42%.

In the case of `O=C(Cn1nc2n(Cc3ccccc3)c(=O)c3ccccc3n2c1=O)Nc1cccc(Cl)c1`, the activity change, negative = inhibition is 0.135% in test [1]; 5.59% in test [2]; 3.1% in test [3]; -3.88% in test [4]; 1.82% in test [5].

Regarding `CC(C)Nc1cc(-c2c[nH]c(C(=O)N[C@H](CO)c3cccc(Cl)c3)c2)c(Cl)cn1`, the activity change, negative = inhibition was -9.9% in test [1]; 1.66% in test [2]; 0.584% in test [3]; -45.1% in test [4]; -6.32% in test [5].

Take `Cc1ccc(N(CC2=NCCN2)c2cccc(O)c2)cc1`: the activity change, negative = inhibition is 0.794% in test [1]; 8.86% in test [2]; -4.16% in test [3]; -10.8% in test [4]; 1.52% in test [5].

With `CCc1ccc(-c2cc3n(n2)CC(C)(C(=O)NC2CCCCC2)N(Cc2ccco2)C3=O)cc1` (stereo not given), the activity change, negative = inhibition is 1.42% in test [1]; 1.97% in test [2]; 5.42% in test [3]; 4.49% in test [4]; 1.33% in test [5].

As for `O=C(Cn1ccc2cc(S(=O)(=O)N3CCCC3)ccc21)NC1CCCCC1`, the activity change, negative = inhibition worked out at 2.74% in test [1]; 0% in test [2]; 6.52% in test [3]; 2.36% in test [4]; 1.61% in test [5].

As for `NCCCC(=O)N1CCCC2(Cc3ccccc3CN2C(=O)c2cccc(Cl)c2)C1` (stereo not given), the activity change, negative = inhibition in test [1] was -8.52%; in test [2], -2.1%; in test [3], -3.65%; in test [4] it was -16.1%; in test [5], -5.6%.

Take `CCc1cc2c(cc3n2CC(C)(C(=O)NC2CCCCCC2)N(CCN(CC)CC)C3=O)s1` (stereo not given): the activity change, negative = inhibition in test [1] was 6.36%; in test [2] it was 0%; in test [3] it was 3.48%; in test [4], 6.53%; in test [5], -3.2%.

`Cn1cccc1CN1CCC2(C1)C(=NC1CCCC1)NC(=O)N2c1cccnc1` (stereo not given): the activity change, negative = inhibition in test [1] was -7.81%; in test [2], -0.726%; in test [3], 0.198%; in test [4] it was -2.29%; in test [5], 4.05%.

`COc1ccc(CCC(=O)N2CCC3(CC2)CC(C(=O)N2CCOCC2)N(C)C3)cc1` (stereo not given): the activity change, negative = inhibition in test [1] is 0.785%; in test [2] it was 1.2%; in test [3] it was 2.66%; in test [4] it was -1.27%; in test [5] it was 13.5%.

On to `CCc1ccccc1NC(=O)Cn1nc2n(C(C)C)c(=O)c3ccc(C(=O)NC(C)CC)cc3n2c1=O` (stereo not given), for which the activity change, negative = inhibition in test [1] worked out at 4.92%; in test [2] it was 0%; in test [3], 8.25%; in test [4], 0.58%; in test [5], 6.03%.

With `CC(C)OC(=O)N1CCC(COc2cnc3c(ccn3CC(N)=O)c2)CC1`, the activity change, negative = inhibition in test [1] was -4.06%; in test [2] it was -0.108%; in test [3], 0.368%; in test [4], -4.15%; in test [5], -15%.

With `CC(C)C(C(=O)N1CCCC1C(=O)O)N(C)C(=O)C(O)Cc1ccccc1` (stereo not given) (H-[PhLac]-[NMeV]-Pro-OH; configuration not given here), the activity change, negative = inhibition was 3.5% in test [1]; 0.439% in test [2]; 10.2% in test [3]; -12% in test [4]; 5.13% in test [5].

In the case of `COCCN(Cc1ccccc1F)Cc1cc2c(cc1OC)OCO2`, the activity change, negative = inhibition in test [1] is -3.57%; in test [2] it was -1.89%; in test [3], -10.8%; in test [4], -15.2%; in test [5], -5.51%.

For the compound `CC1(C(=O)Nc2ccc(F)nc2)CCCN1c1nc(Nc2cc(C3CC3)[nH]n2)c2cccn2n1` (stereo not given), the activity change, negative = inhibition was -4.02% in test [1]; 2.38% in test [2]; 8.18% in test [3]; -20.1% in test [4]; -2.06% in test [5].
